Source: the GPR68 mutational scans of Howard et al. (2025)

B1: GPR68, Q15743 (parent)
chain: MGNITADNSSMSCTIDHTIHQTLAPVVYVTVLVVGFPANCLSLYFGYLQIKARNELGVYLCNLTVADLFYICSLPFWLQYVLQHDNWSHGDLSCQVCGILLYENIYISVGFLCCISVDRYLAVAHPFRFHQFRTLKAAVGVSVVIWAKELLTSIYFLMHEEVIEDENQHRVCFEHYPIQAWQRAINYYRFLVGFLFPICLLLASYQGILRAVRRSHGTQKSRKDQIQRLVLSTVVIFLACFLPYHVLLLVRSVWEASCDFAKGVFNAYHFSLLLTSFNCVADPVLYCFVSETTHRDLARLRGACLAFLTCSRTGRAREAYPLGAPEASGKSGAQGEEPELLTKLHPAFQTPNSPGSGGFPTGRLA

What was measured:
[1] = variants of: B1; assay: cAMP reporter score (Enrich2 score, wild type = 0); higher = more signal; HEK293T, FACS bins
[2] = variants of: B1; assay: surface expression score (Enrich2 score, wild type = 0); higher = more signal; HEK293T, FACS bins

Variant: MGNITADNSSMSCTIDHTIHQTLAPVVYVTVLVVGFPANCLSLYFGYLQIKARNELGVYLCNLTVADLFDICSLPFWLQYVLQHDNWSHGDLSCQVCGILLYENIYISVGFLCCISVDRYLAVAHPFRFHQFRTLKAAVGVSVVIWAKELLTSIYFLMHEEVIEDENQHRVCFEHYPIQAWQRAINYYRFLVGFLFPICLLLASYQGILRAVRRSHGTQKSRKDQIQRLVLSTVVIFLACFLPYHVLLLVRSVWEASCDFAKGVFNAYHFSLLLTSFNCVADPVLYCFVSETTHRDLARLRGACLAFLTCSRTGRAREAYPLGAPEASGKSGAQGEEPELLTKLHPAFQTPNSPGSGGFPTGRLA [Y70D]
- cAMP reporter score ([1]; pH 5.5): -0.082
- cAMP reporter score ([1]; pH 6): -1.4
- cAMP reporter score ([1]; pH 6, modulator: ogerin): -0.796
- cAMP reporter score ([1]; pH 6.5, modulator: ogerin): -0.433
- surface expression score [2]: -2.75

Variant: MGNITADNSSMSCTIDHTIHQTLAPVVYVTVLVVGFPANCLSLYFGYLQIKARNELGVYLCNLTVADLFEICSLPFWLQYVLQHDNWSHGDLSCQVCGILLYENIYISVGFLCCISVDRYLAVAHPFRFHQFRTLKAAVGVSVVIWAKELLTSIYFLMHEEVIEDENQHRVCFEHYPIQAWQRAINYYRFLVGFLFPICLLLASYQGILRAVRRSHGTQKSRKDQIQRLVLSTVVIFLACFLPYHVLLLVRSVWEASCDFAKGVFNAYHFSLLLTSFNCVADPVLYCFVSETTHRDLARLRGACLAFLTCSRTGRAREAYPLGAPEASGKSGAQGEEPELLTKLHPAFQTPNSPGSGGFPTGRLA [Y70E]
- cAMP reporter score ([1]; pH 5.5): -0.965
- cAMP reporter score ([1]; pH 6): -0.762
- cAMP reporter score ([1]; pH 6, modulator: ogerin): -1.2
- cAMP reporter score ([1]; pH 6.5, modulator: ogerin): -0.178
- surface expression score [2]: -2.48

Scores with a large standard error are left out. Two further conditions of the source, in which the scores hardly spread, are not listed. In variant names, del marks residues removed and ins residues inserted between the two positions. For some of these results: The concentration of ogerin is not given here.
